# This is one part of the list.
# Tests used:
# Test in all cases: glycan array binding signal (z-score within array); higher = stronger binding
# Details in all cases: glycan notation: IUPAC condensed, linker removed
# [1] = molecular target: Neu5Ac(a2-3)Gal(b1-4)[Fuc(a1-3)]GlcNAc
# In short: (§1)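 Glycan array data were curated from 3228 arrays in the Consortium for Functional Glycomics database and kept only where the protein sequence was available. Glycan names were converted to IUPAC-condensed notation, and columns mapping to the same glycan were averaged. The binding signal is a within-array Z-score, averaged across arrays of the same protein sequence at different concentrations or buffers and across linkers. Negative Z-scores can be read as non-binding.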
# [2] = molecular target: Neu5Ac(a2-3)Gal(b1-4)[Fuc(a1-3)]GlcNAc(b1-3)Gal
# In short: as §1
# [3] = molecular target: Neu5Ac(a2-3)Gal(b1-4)[Fuc(a1-3)]GlcNAc(b1-3)Gal(b1-4)GlcNAc
# In short: as §1
# [4] = molecular target: Neu5Ac(a2-3)Gal(b1-4)[Fuc(a1-3)]GlcNAc(b1-3)Gal(b1-4)[Fuc(a1-3)]GlcNAc(b1-3)Gal(b1-4)[Fuc(a1-3)]GlcNAc
# In short: as §1
# [5] = molecular target: Neu5Ac(a2-3)Gal(b1-4)[Fuc(a1-3)]GlcNAc(b1-6)[Gal(b1-3)]GalNAc
# In short: as §1
# [6] = molecular target: Neu5Ac(a2-3)Gal(b1-4)[Fuc(a1-3)]GlcNAc6S
# In short: as §1
# [7] = molecular target: Neu5Ac(a2-3)Gal6S(b1-4)GlcNAc
# In short: as §1
# [8] = molecular target: Neu5Ac(a2-3)Gal6S(b1-4)[Fuc(a1-3)]GlcNAc
# In short: as §1
# Neu5Ac(a2-3)GalNAc = molecular target: Neu5Ac(a2-3)GalNAc
# In short: as §1
# [9] = molecular target: Neu5Ac(a2-3)GalNAc(b1-4)GlcNAc
# In short: as §1
# [10] = molecular target: Neu5Ac(a2-3)[GalNAc(b1-4)]Gal(b1-4)Glc
# In short: as §1
# [11] = molecular target: Neu5Ac(a2-3)[GalNAc(b1-4)]Gal(b1-4)GlcNAc
# In short: as §1
# [12] = molecular target: Neu5Ac(a2-3)[Neu5Ac(a2-6)]GalNAc
# In short: as §1
# Neu5Ac(a2-6)Gal = molecular target: Neu5Ac(a2-6)Gal
# In short: as §1
# Neu5Ac(a2-6)Gal(b1-4)Glc = molecular target: Neu5Ac(a2-6)Gal(b1-4)Glc
# In short: as §1
# [13] = molecular target: Neu5Ac(a2-6)Gal(b1-4)GlcNAc
# In short: as §1
# [14] = molecular target: Neu5Ac(a2-6)Gal(b1-4)GlcNAc(b1-2)Man(a1-3)[Gal(b1-4)GlcNAc(b1-2)Man(a1-6)]Man(b1-4)GlcNAc(b1-4)GlcNAc
# In short: as §1
# [15] = molecular target: Neu5Ac(a2-6)Gal(b1-4)GlcNAc(b1-2)Man(a1-3)[GlcNAc(b1-2)Man(a1-6)]Man(b1-4)GlcNAc(b1-4)GlcNAc
# In short: as §1
# [16] = molecular target: Neu5Ac(a2-6)Gal(b1-4)GlcNAc(b1-2)Man(a1-3)[GlcNAc(b1-2)Man(b1-4)GlcNAc(b1-2)Man(a1-6)]Man(b1-4)GlcNAc(b1-4)GlcNAc
# In short: as §1
# [17] = molecular target: Neu5Ac(a2-6)Gal(b1-4)GlcNAc(b1-2)Man(a1-3)[Neu5Ac(a2-6)Gal(b1-4)GlcNAc(b1-2)Man(a1-6)]Man(b1-4)GlcNAc(b1-4)GlcNAc
# In short: as §1
# [18] = molecular target: Neu5Ac(a2-6)Gal(b1-4)GlcNAc(b1-2)Man(a1-6)[Gal(b1-4)GlcNAc(b1-2)Man(a1-3)]Man(b1-4)GlcNAc(b1-4)GlcNAc
# In short: as §1
# [19] = molecular target: Neu5Ac(a2-6)Gal(b1-4)GlcNAc(b1-2)Man(a1-6)[GlcNAc(b1-2)Man(a1-3)]Man(b1-4)GlcNAc(b1-4)GlcNAc
# In short: as §1
# [20] = molecular target: Neu5Ac(a2-6)Gal(b1-4)GlcNAc(b1-3)Gal(b1-4)GlcNAc
# In short: as §1
# [21] = molecular target: Neu5Ac(a2-6)Gal(b1-4)GlcNAc(b1-3)Gal(b1-4)[Fuc(a1-3)]GlcNAc(b1-3)Gal(b1-4)[Fuc(a1-3)]GlcNAc
# In short: as §1
# [22] = molecular target: Neu5Ac(a2-6)Gal(b1-4)GlcNAc6S
# In short: as §1
# Neu5Ac(a2-6)GalNAc = molecular target: Neu5Ac(a2-6)GalNAc
# In short: as §1
# [23] = molecular target: Neu5Ac(a2-6)GalNAc(b1-4)GlcNAc
# In short: as §1
# Neu5Ac(a2-8)Neu5Ac = molecular target: Neu5Ac(a2-8)Neu5Ac
# In short: as §1
# [24] = molecular target: Neu5Ac(a2-8)Neu5Ac(a2-3)Gal(b1-4)Glc
# In short: as §1
# [25] = molecular target: Neu5Ac(a2-8)Neu5Ac(a2-3)[GalNAc(b1-4)]Gal(b1-4)Glc
# In short: as §1
# [26] = molecular target: Neu5Ac(a2-8)Neu5Ac(a2-8)Neu5Ac
# In short: as §1
# [27] = molecular target: Neu5Ac(a2-8)Neu5Ac(a2-8)Neu5Ac(a2-3)Gal(b1-4)Glc
# In short: as §1
# [28] = molecular target: Neu5Ac(a2-8)Neu5Ac(a2-8)Neu5Ac(a2-3)[GalNAc(b1-4)]Gal(b1-4)Glc
# In short: as §1
# [29] = molecular target: Neu5Ac(a2-8)Neu5Ac(a2-8)Neu5Ac(a2-8)Neu5Ac(a2-3)[GalNAc(b1-4)]Gal(b1-4)Glc
# In short: as §1
# [30] = molecular target: Neu5Ac(b2-6)Gal(b1-4)GlcNAc
# In short: as §1
# Neu5Ac(b2-6)GalNAc = molecular target: Neu5Ac(b2-6)GalNAc
# In short: as §1
# [31] = molecular target: Neu5Ac9Ac(a2-6)Gal(b1-4)GlcNAc
# In short: as §1
# [32] = molecular target: Neu5Gc(a2-3)Gal(b1-3)GlcNAc
# In short: as §1
# [33] = molecular target: Neu5Gc(a2-3)Gal(b1-3)[Fuc(a1-4)]GlcNAc
# In short: as §1
# Neu5Gc(a2-3)Gal(b1-4)Glc = molecular target: Neu5Gc(a2-3)Gal(b1-4)Glc
# In short: as §1
# [34] = molecular target: Neu5Gc(a2-3)Gal(b1-4)GlcNAc
# In short: as §1
# [35] = molecular target: Neu5Gc(a2-3)Gal(b1-4)[Fuc(a1-3)]GlcNAc
# In short: as §1
# [36] = molecular target: Neu5Gc(a2-6)Gal(b1-4)GlcNAc
# In short: as §1
# Neu5Gc(a2-6)GalNAc = molecular target: Neu5Gc(a2-6)GalNAc
# In short: as §1
# [37] = molecular target: Neu5Gc(b2-6)Gal(b1-4)GlcNAc
# In short: as §1
binder,measurement,setting,value
GH95CBM (Clostridium perfringens) (protein) EKVAVETSVYLSELEWKSASTGYGEIQKDASCDGNTITLKGENGEKVSYDKGIGTHAHSEIVYSLEGLDYYDYFETFVGVDQEMAGTVASISFEVYLDNEKVFDSGLMTGDTTQKHVKVPIAGKNTLKLVVKDGGDSIGSDHGSFGDAKLT,glycan array binding signal (z-score),[1],-0.345
same,glycan array binding signal (z-score),[2],-0.353
same,glycan array binding signal (z-score),[3],-0.063
same,glycan array binding signal (z-score),[4],1.2
same,glycan array binding signal (z-score),[5],-0.231
same,glycan array binding signal (z-score),[6],1.31
same,glycan array binding signal (z-score),[7],-0.133
same,glycan array binding signal (z-score),[8],-0.268
same,glycan array binding signal (z-score),Neu5Ac(a2-3)GalNAc,-0.326
same,glycan array binding signal (z-score),[9],-0.362
same,glycan array binding signal (z-score),[10],-0.339
same,glycan array binding signal (z-score),[11],-0.336
same,glycan array binding signal (z-score),[12],-0.358
same,glycan array binding signal (z-score),Neu5Ac(a2-6)Gal,-0.355
same,glycan array binding signal (z-score),Neu5Ac(a2-6)Gal(b1-4)Glc,-0.303
same,glycan array binding signal (z-score),[13],-0.269
same,glycan array binding signal (z-score),[14],-0.168
same,glycan array binding signal (z-score),[15],-0.35
same,glycan array binding signal (z-score),[16],-0.3
same,glycan array binding signal (z-score),[17],0.964
same,glycan array binding signal (z-score),[18],-0.132
same,glycan array binding signal (z-score),[19],-0.314
same,glycan array binding signal (z-score),[20],-0.346
same,glycan array binding signal (z-score),[21],-0.276
same,glycan array binding signal (z-score),[22],-0.298
same,glycan array binding signal (z-score),Neu5Ac(a2-6)GalNAc,-0.333
same,glycan array binding signal (z-score),[23],-0.37
same,glycan array binding signal (z-score),Neu5Ac(a2-8)Neu5Ac,-0.283
same,glycan array binding signal (z-score),[24],-0.249
same,glycan array binding signal (z-score),[25],-0.135
same,glycan array binding signal (z-score),[26],-0.356
same,glycan array binding signal (z-score),[27],-0.343
same,glycan array binding signal (z-score),[28],-0.34
same,glycan array binding signal (z-score),[29],-0.28
same,glycan array binding signal (z-score),[30],-0.339
same,glycan array binding signal (z-score),Neu5Ac(b2-6)GalNAc,-0.339
same,glycan array binding signal (z-score),[31],-0.367
same,glycan array binding signal (z-score),[32],-0.364
same,glycan array binding signal (z-score),[33],-0.252
same,glycan array binding signal (z-score),Neu5Gc(a2-3)Gal(b1-4)Glc,-0.265
same,glycan array binding signal (z-score),[34],-0.34
same,glycan array binding signal (z-score),[35],-0.303
same,glycan array binding signal (z-score),[36],-0.377
same,glycan array binding signal (z-score),Neu5Gc(a2-6)GalNAc,-0.328
same,glycan array binding signal (z-score),[37],-0.33

# From the supplement of paper PMC8728848
